# Laboratory results published in PubChem BioAssay AID588453 (National Center for Advancing Translational Sciences (NCATS), 2011).
# Values joined by “and” are separate entries in the source; they are usually repeats but may differ in a detail not shown here. Equal entries are not always repeated. Among all 390,000 compounds or so, about 4,000 (1%) were called active. The shares of active, inactive and inconclusive entries below differ from those in the screen. Calls follow the shape of the dose curve; as a rule, active = well fitted inhibition curve with a large enough effect; inconclusive = small, poorly fitted or top-dose-only effect; inactive = no such curve, though single readings can be large or run the other way. Where the call is inconclusive, the potency comes from a doubtful curve fit.
# Target: Thioredoxin reductase 1, cytoplasmic (Rattus norvegicus) (UniProt O89049)
# Test: qHTS Assay for Inhibitors of Mammalian Selenoprotein Thioredoxin Reductase 1 (TrxR1): qHTS; also: nearly all actives have a fitted effect of over 65% in size
# Settings: recombinant rTrxR1, NADPH fluorescence consumption, selenite substrate; series mostly up to 114 µM
# Procedure, shortened: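 Rat TrxR1 (90 nM in the dispensed reagent) was pre-reduced with 400 uM NADPH for 5 min at room temperature, then incubated with compound for 15 min. After 400 uM selenite was added, NADPH fluorescence (Ex 340/Em 450 nm) was followed for 8 min.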
# % is scaled to controls: 0 for no effect and ±100 for the full control effect; potency is read from the fitted curve at half-maximal effect; tags tell the direction and shape of the fitted curve.
# Sequence of UniProt O89049 (O89049 whole entry, looked up): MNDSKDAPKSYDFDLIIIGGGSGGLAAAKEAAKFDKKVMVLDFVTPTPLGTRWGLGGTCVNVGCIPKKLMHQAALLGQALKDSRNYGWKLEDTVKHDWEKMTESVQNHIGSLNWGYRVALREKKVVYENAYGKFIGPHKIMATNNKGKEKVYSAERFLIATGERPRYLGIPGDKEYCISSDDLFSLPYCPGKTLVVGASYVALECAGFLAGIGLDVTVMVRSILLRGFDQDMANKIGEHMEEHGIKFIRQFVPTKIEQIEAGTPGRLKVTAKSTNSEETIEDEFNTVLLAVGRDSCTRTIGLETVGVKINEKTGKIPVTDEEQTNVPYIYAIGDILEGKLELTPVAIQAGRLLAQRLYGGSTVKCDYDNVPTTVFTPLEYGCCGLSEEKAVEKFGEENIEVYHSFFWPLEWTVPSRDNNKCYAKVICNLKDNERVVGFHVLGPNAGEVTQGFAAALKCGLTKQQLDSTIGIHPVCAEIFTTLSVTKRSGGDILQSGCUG
SMILES,Potency,"activity change, negative = inhibition"
CCOc1ccccc1C(=O)NC(C(=O)NCCc1ccccn1)C(C)C (stereo unspecified),"inconclusive: 89.1 µM [inhibitor, single point]",–
CCn1ncc(S(=O)(=O)NCc2ccco2)c1C,"inconclusive: 89.1 µM [inhibitor, single point]",–
C(=C1c2ccccc2Oc2ccccc21)c1ccccc1,–,inactive: 16.1% [at 0.0914 µM]
CCCC(=O)NC(=S)Nc1ccccc1OC,inactive,–
COc1ccc2c(c1)CCc1c(C(=O)N3CCOCC3)noc1-2,active: 20 µM,–
COc1ccc(-c2oc3ncn4nc(-c5ccccc5O)nc4c3c2-c2ccc(OC)cc2)cc1,inactive,–
Cc1cccc(S(=O)(=O)N2CN(Cc3ccco3)c3nc4ccccc4nc32)c1,"inconclusive: 50.1 µM [inhibitor, partial curve]",–
CCOC(=O)c1ccc(NC(=O)C2CCCN(c3ncnc4onc(-c5ccc(F)cc5)c34)C2)cc1 (stereo unspecified),inactive,–
Cc1ccc(C)c(N2CCN(C(=O)c3cc4ccccn4n3)CC2)c1,"inconclusive: 28.2 µM [inhibitor, single point]",–
Cc1c(C(=O)NCc2ccccc2)sc2nc3n(c(=O)c12)CCCCC3,"inconclusive: 89.1 µM [inhibitor, single point]",–
O=C1C=CC(=O)c2c(O)c(N3CCN(CCOCCO)CC3)c(Br)c(O)c21,"inconclusive: 0.316 µM [inhibitor, full curve, poor fit]",–
CC(=O)c1cccc(NC(=S)NC(=O)c2cncc(Br)c2)c1,active: 22.4 µM,–
Cc1cccc(Cn2c(C(=O)OC(C)C)cc3c2ccn3C)c1,"inconclusive: 3.16 µM [inhibitor, partial curve]",–
O=C(N/N=C/c1ccco1)c1cccc(N2Cc3ccccc3C2)c1,active: 50.1 µM,–
CCOC(=O)C1(C)/C(=N/Nc2cccc(Cl)c2)C(=O)C(=O)N1c1ccccc1 (stereo unspecified),"inconclusive: 44.7 µM [inhibitor, partial curve]",–
CCOc1ccc(/C(O)=C2/C(=O)C(=O)N(c3ncccn3)C2c2ccc(Cl)cc2)cc1 (stereo unspecified),inactive,–
CC(C)(C)CC(=O)NC(=S)Nc1ccccc1C(F)(F)F,"inconclusive: 12.6 µM [inhibitor, partial curve, poor fit]",–
COc1cc2c(cc1OC)C1=C(C#N)COCN1CC2,active: 12.6 µM,–
COc1cccc(NC(=O)Cn2nc(Cc3cccnc3)c3ccccc3c2=O)c1,inactive,–
CCN(CC)c1ccc(C=C2C(=O)OC(c3ccccc3)OC2=O)cc1 (stereo unspecified),"inconclusive: 20 µM [inhibitor, partial curve]",–
CSc1ccccc1NC(=O)c1noc(C)c1[N+](=O)[O-],"inconclusive: 22.4 µM [inhibitor, single point]",–
CCOC(=O)c1ccc(-n2c(CCC(=O)O)ccc2-c2ccc(Br)cc2)cc1,"inconclusive: 70.8 µM [inhibitor, partial curve]",–

SMILES,Potency,"activity change, negative = inhibition"
Cc1cccc(OCC(=O)N/N=C/c2sc(=O)n(Cc3cccc(C(=O)O)c3)c2Cl)c1,"inconclusive: 89.1 µM [inhibitor, single point]",–
CC(C)n1c(=S)[nH]c2cc(Cl)ccc21,"inconclusive: 17.8 µM [inhibitor, partial curve, poor fit]",–
Cc1cc(=O)[nH]c2nnc(SCc3ccc(F)cc3)n12,inactive,–
CN(Cc1cnccn1)Cc1nc(Cc2cccc(F)c2)no1,"inconclusive: 79.4 µM [inhibitor, partial curve, poor fit]",–
COc1ccc(C(c2c(N)[nH]c(=S)[nH]c2=O)c2c(N)[nH]c(=S)[nH]c2=O)cc1,"inconclusive: 28.2 µM [inhibitor, full curve, poor fit]",–
O=C(CS(=O)(=O)c1ccccc1)c1cc2cc(F)ccc2oc1=O,inactive,–
COc1cc(C2Nc3cccc4cccc(c34)N2)ccc1OC(C)=O,active: 10 µM,–
Cc1ccccc1-n1c(=O)cc(N2CCN(Cc3ccccc3)CC2)[nH]c1=O,"inconclusive: 22.4 µM [inhibitor, partial curve, poor fit]",–
Cc1ccc(S(=O)(=O)N(C)C)cc1NC(=O)C1Cc2ccccc2CN1C(=O)c1ccco1 (stereo unspecified),active: 39.8 µM,–
CC(C)(c1ccccc1)c1ccc(OCCCNCCO)cc1,"inconclusive: 28.2 µM [inhibitor, partial curve, poor fit]",–
O=C(c1ccco1)N1CCN(C(c2ccccc2Cl)c2nnnn2Cc2ccco2)CC1 (stereo unspecified),"inconclusive: 39.8 µM [inhibitor, single point]",–
COC(=O)c1ccccc1NC(=O)Cn1c(CCC(=O)O)ccc1-c1cccs1,"inconclusive: 31.6 µM [inhibitor, single point] and inconclusive: 50.1 µM [inhibitor, partial curve]",–
COC(=O)CSc1ncc2c(n1)-c1ccccc1N(Cc1ccccc1C)S2(=O)=O,inactive,–
Cc1noc(C)c1S(=O)(=O)Nc1ccc2c(c1)C(=O)N([C@H](C)CO)C[C@H](C)[C@@H](CN(C)S(=O)(=O)c1ccccc1)O2,"inconclusive: 56.2 µM [inhibitor, partial curve, poor fit]",–
CCOc1ccc(N(C)C(=O)CS(=O)(=O)c2cccc3nsnc23)cc1,inactive,–
O=C(CN1C(=O)C(=O)N(Cc2ccco2)C1=O)c1c[nH]c2ccccc12,active: 14.1 µM,–
COC(=O)c1c(Cl)c2n3ccccc3c(C)c(-c3ccccc3)c-2c1C(=O)OC,"inconclusive: 70.8 µM [inhibitor, single point]",–
C=CC(=O)N1C/C(=C/c2ccc(F)cc2)C(=O)/C(=C\c2ccc(F)cc2)C1,active: 25.1 µM,–
O=C1CCCC2=C1C(c1ccc(O)c(O)c1)Nc1ccc3ncccc3c12 (stereo unspecified),"inconclusive: 44.7 µM [inhibitor, single point]",–
NS(=O)(=O)c1ccc(CNC(=S)NCc2ccc(Cl)cc2)cc1,"inconclusive: 3.16 µM [inhibitor, full curve, poor fit]",–
COCCN=c1scc(-c2cccs2)n1/N=C(\C)c1ccco1,"inconclusive: 50.1 µM [inhibitor, partial curve]",–
CCCCN1C2=C(C(=O)CCC2)C(c2ccc(Cl)c(Cl)c2)C2=C1c1ccccc1C2=O (stereo unspecified),"inconclusive: 56.2 µM [inhibitor, partial curve, poor fit]",–

SMILES,Potency,"activity change, negative = inhibition"
Cc1ccc(S(=O)(=O)N(Cc2n[nH]c(=S)n2-c2ccccc2)c2cccc(Cl)c2)cc1,"inconclusive: 79.4 µM [inhibitor, single point]",–
C[C@H]1CN(S(=O)C(C)(C)C)[C@H](CCO)/C1=C\CCO (stereo partly specified),"inconclusive: 79.4 µM [inhibitor, partial curve]",–
Nc1nnc(SCC(=O)c2ccc([N+](=O)[O-])cc2)s1,"inconclusive: 3.98 µM [inhibitor, single point]",–
O=[N+]([O-])c1cc(/C=N\O)ccc1Oc1ccc(F)cc1,"inconclusive: 39.8 µM [inhibitor, partial curve, poor fit]",–
Cc1ccc(/C(O)=C2/C(=O)C(=O)N(CC(=O)O)C2c2ccc([N+](=O)[O-])cc2)cc1 (stereo unspecified),"inconclusive: 79.4 µM [inhibitor, partial curve, poor fit]",–
COc1ccc(CCNC(=O)CCS(=O)(=O)c2ccc3c(c2)NC(=O)CS3)cc1OC,"inconclusive: 79.4 µM [inhibitor, partial curve, poor fit]",–
C/C=C/c1ccc(OCC(O)CNCC(c2ccc(OC)cc2)N(C)C)c(OC)c1 (stereo unspecified),inactive,–
c1ccc(CCCNCC2COc3ccccc3O2)cc1 (stereo unspecified),"inconclusive: 79.4 µM [inhibitor, partial curve, poor fit]",–
CCc1nnc(NS(=O)(=O)c2ccc(N=Cc3c(C)[nH]n(-c4ccc(C)cc4)c3=O)cc2)s1,"inconclusive: 28.2 µM [inhibitor, partial curve, poor fit]",–
CNc1sc(C(=O)c2ccc(F)cc2)c(N)c1-c1nc2ccccc2s1,inactive,–
CC(C)CCN1CCN(Cc2ccoc2)CC1CCO (stereo unspecified),"inconclusive: 56.2 µM [inhibitor, partial curve, poor fit]",–
Cc1ccc(CSC2=Nc3ccccc3C3=NC(CC(=O)NCc4ccco4)C(=O)N23)cc1 (stereo unspecified),"inconclusive: 35.5 µM [inhibitor, partial curve]",–
COc1cc2c(NC3CCN(C(C)C)CC3)nc(N3CCCN(C)CC3)nc2cc1OCCCN(C)C,"inconclusive: 56.2 µM [inhibitor, single point]",–
COc1ccc(NS(=O)(=O)c2ccc3c(c2)CCCN3C(=O)C2CCC2)cc1OC,inactive,–
Cc1ccc(NC(=O)C2CCN(C(=O)c3cnn(-c4ccccc4)c3-n3cccc3)CC2)cc1,inactive,–
Cc1ccc2c(c1)C(O)(CC(=O)/C=C/C=C/c1ccccc1)C(=O)N2 (stereo unspecified),"inconclusive: 79.4 µM [inhibitor, single point]",–
c1ccc2c(c1)CNc1ccccc1C2,"inconclusive: 89.1 µM [inhibitor, single point]",–
Oc1ccc(-c2n[nH]c(=S)n2Cc2ccco2)cc1,"inconclusive: 39.8 µM [inhibitor, single point]",–
COc1ccc(-n2c(=O)[nH]cc(C(=O)Nc3ccc4c(c3)OCCO4)c2=O)cc1OC,"inconclusive: 89.1 µM [inhibitor, single point]",–
O=C(CSC1=NS(=O)(=O)c2ccccc21)Nc1ccccc1,active: 7.94 µM,–
Cc1cc(CNC(=O)C2(C(F)(F)F)CC(CCCO)CCCO2)nn1C (stereo unspecified),"inconclusive: 70.8 µM [inhibitor, single point]",–
CC(C)(C)C(=O)NC(NC(=S)Nc1ccc(S(N)(=O)=O)cc1)C(Cl)(Cl)Cl (stereo unspecified),"inconclusive: 50.1 µM [inhibitor, partial curve, poor fit]",–
